Our source for the survival values is PubChem BioAssay AID463173 (ICCB-Longwood Screening Facility, Harvard Medical School, 2010).

Each structure is given as a SMILES string. Screen size: about 52,000 compounds; about 1,700 (3.3%) were called active. Rule as the data show it: active = survival mostly below about 52% (no sharp cut-off); inactive = mostly above about 56%. The list shows a part of the results.

The test relates to Wild type. As to the kind of experiment: S. aureus survival, RN4220 and DeltatarO strains – OD600, teichoic acid synthesis inhibitors, primary screen (AID 463173). Conditions: S. aureus RN4220 wild type/DeltatarO growth, OD600, 18 h, active compounds read low, screened at 18.75 µg/mL (by protocol).
In the case of `CN(CC(=O)NCc1ccccc1)S(=O)(=O)c1ccc2[nH]c3c(c2c1)CCCC3`, the survival is inactive: 72%. Turning to `COC(=O)c1ccc(OCC2c3cc(OC)c(OC)cc3CCN2C(=O)Cc2ccccc2)cc1` (centres undefined), the survival was inactive: 78%. Consider `Cn1cnnc1SCC(=O)Nc1ccc(C#N)cc1`, for which the survival was inactive: 71%. With `CCc1ccccc1NC(=O)C1(C)Cc2ccccc2C(=O)O1` (centres undefined), the survival was inactive: 97%. Consider `COc1ccc(-c2cn3nc(N4CCCC(C(=O)Nc5cc(C)cc(C)c5)C4)sc3n2)cc1` (centres undefined), for which the survival is inactive: 71%. Take `CCN(Cc1ccccc1)S(=O)(=O)c1cc(C(=O)Nc2cc(Cl)cc(Cl)c2)ccc1F`: the survival was inactive: 68%. The figure for `COc1ccc(-c2[nH]c(-c3cccc(OC)c3)nc2SCC(=O)NC2CCCC2)cc1` is inactive: 144%; for `O=S(=O)(NCC(c1cccs1)S(=O)(=O)c1ccccc1)c1ccc(F)c(C(F)(F)F)c1` (centres undefined) it is inactive: 79%; for `CC(C)(C)C1CCc2c(sc(NC(=O)c3ccc(Cl)cc3)c2C(=O)NCc2ccco2)C1` (centres undefined) it is inactive: 95%.

Take `COc1ccccc1N1CCN(c2ncnc3c2cnn3-c2cccc(Cl)c2)CC1`: the survival is active: -4%. Consider `CCN(CC)S(=O)(=O)c1ccc(C(=O)N2CC(=O)Nc3ccc(F)cc3C2c2ccccc2)cc1` (centres undefined), for which the survival was inactive: 81%. Consider `O=C(C1CCN(S(=O)(=O)c2ccc(Br)s2)CC1)N1CCN(c2ccccc2)CC1`, for which the survival was inactive: 75%. The result for `CC(C)(C)OC(=O)N1CCC(c2c(C(=O)NCCc3ccccc3)cnn2-c2ccc(F)cc2)CC1` reads inactive: 78%; that for `CC(=O)N1c2ccc(S(=O)(=O)NCC3CCC(C(=O)Nc4cc(C)ccc4C)CC3)cc2CC1C` (centres undefined), inactive: 113%. The result for `COc1cc(NC(=O)c2c(C)oc3c2C2=NCCN2C=N3)cc(OC)c1OC` reads inactive: 81%; that for `CC(=O)Nc1ccc2nc(SCCOc3cc(C)cc(C)c3)sc2c1`, inactive: 85%; that for `COc1ccc(CCN2C(=O)NC(NS(=O)(=O)c3ccc(NC(C)=O)cc3)(C(F)(F)F)C2=O)cc1OC` (centres undefined), inactive: 72%.

For the compound `COc1ccc(OCC(=O)NCc2ccc3c(c2)CCN3C(=O)c2ccc(F)cc2)cc1`, the survival is inactive: 131%. The result for `CCc1ccc(-c2nn(CC(=O)NCc3ccccc3)c3c2cnc2ccc(F)cc23)cc1` reads inactive: 83%; that for `Cc1ccccc1CCN(Cc1cc2c(C)ccc(C)c2[nH]c1=O)C(=O)c1cnccn1`, inactive: 112%; that for `COc1cc(NC(=O)COCc2cc(-c3ccc4c(c3)OCO4)on2)cc(OC)c1`, inactive: 128%. Turning to `CN(C)c1ccc(/C=C(\C#N)c2nc(-c3ccc(Cl)c(Cl)c3)cs2)cc1`, the survival was inactive: 89%.

With `Cn1c2ccccc2c2cnn(CC(=O)Nc3ccccc3C(F)(F)F)c(=O)c21`, the survival was inactive: 79%.

In the case of `Cc1ccccc1-c1noc(-c2ccc(N3CCOCC3)c([N+](=O)[O-])c2)n1`, the survival was inactive: 98%.

Regarding `Cc1ccc(-n2c(=O)c3c(cnn3C)n(Cc3ccccc3F)c2=O)cc1`, the survival was inactive: 96%. The figure for `COc1cc(NC(=O)c2oc3c(c2C)-c2nn(Cc4cccc(Cl)c4)cc2CC3)cc(OC)c1` is inactive: 74%; for `CCOc1ccc(N(C(C)C(=O)Nc2cc(Cl)ccc2OC)S(C)(=O)=O)cc1` (centres undefined) it is inactive: 76%; for `O=C(Nc1ccc(OC(F)(F)F)cc1)C1CCN(S(=O)(=O)c2cccs2)CC1` it is inactive: 78%. Take `CCN(CC)C(=O)c1sc2c(c1C)c(=O)n(-c1ccc(OC)cc1OC)c(=O)n2CC(=O)c1ccc(Cl)cc1`: the survival was inactive: 131%.

Turning to `CCn1cc(S(=O)(=O)c2ccccc2)c(=O)c2cc(F)c(N3CCN(c4ccccc4)CC3)cc21`, the survival was inactive: 120%. The figure for `Cc1ccc(Cn2c(CN3CCC(C(=O)NCCc4ccccc4)CC3)cc3ccccc32)cc1` is inactive: 77%. With `N#Cc1ccc(C(=O)Nc2ccc3c(c2)N(C2CCCC2)C(=O)c2ccccc2S3)cc1`, the survival was inactive: 87%. `COc1ccc(Cl)cc1NC(=O)C1CC(=O)n2c(nc3ccccc32)N1` (centres undefined): the survival was inactive: 112%. For `CC(C)Sc1ncc(Cl)c(C(=O)N(Cc2ccc(N(C)C)cc2)C2CCS(=O)(=O)C2)n1` (centres undefined), the survival is inactive: 80%. Regarding `CCc1nn(CC(=O)Nc2ccc(N(CC)CC)cc2C)c(=O)c2cc3sccc3n12`, the survival is inactive: 96%. The result for `O=C(NCCc1nc2ccccc2n1Cc1ccc(Cl)cc1Cl)c1ccco1` reads inactive: 76%; that for `CCn1ccc2c(OCC(=O)NCc3ccc(F)cc3)cccc2c1=O`, inactive: 87%. Take `Cc1ccc(-c2noc(-c3ccccc3NC(=O)C3CC(=O)N(c4ccccc4C)C3)n2)cc1` (centres undefined): the survival is inactive: 120%.

Take `Cc1nn(-c2ccc(N3CCCC3)nn2)c(C)c1CCC(=O)Nc1ccc(F)c(Cl)c1`: the survival is inactive: 54%.

On to `CC(C)Cn1c(=O)c2ccccc2n2c(CCC(=O)NC(C)c3ccccc3)nnc12` (centres undefined), for which the survival was inactive: 85%. On to `Cc1onc(-c2c(Cl)cccc2Cl)c1C(=O)n1c(C)nc2ccccc21`, for which the survival was inactive: 105%. As for `CCOc1ccc(C2C(C(=O)Nc3ccccc3)=C(C)Nc3nc(SCc4cc(C)ccc4C)nn32)cc1` (centres undefined), the survival is inactive: 124%. Take `Cc1cc(C)c2nc(N(Cc3cccnc3)C(=O)c3cccs3)sc2c1`: the survival is inactive: 55%.

Take `COc1cc(-c2nc(Cn3nnc(C(=O)Nc4ccc(C)cc4C)c3C)c(C)o2)cc(OC)c1OC`: the survival is inactive: 70%. For `Cc1oc(-c2ccccc2F)nc1CS(=O)(=O)CC(=O)NCCc1ccc(Cl)cc1`, the survival was inactive: 132%. Take `O=C(/C=C/c1ccco1)CC1(O)C(=O)Nc2ccccc21` (centres undefined): the survival was inactive: 108%. The figure for `CSc1ncc(C(=O)N2CCN(c3cc(Cl)ccc3C)CC2)c(C)n1` is inactive: 65%; for `CCCN(C(=O)CCc1nc(-c2ccc(OC)cc2)no1)c1ccccc1F` it is active: 0%; for `COc1cccc2cc(-c3nnc(Nc4c(F)cccc4F)s3)c(=O)oc12` it is inactive: 66%. The figure for `COc1ccc(CN2CCC(C(=O)NC3CCCC3)CC2)cc1` is inactive: 84%. The result for `Cc1ccc(NC(=O)CN(C)S(=O)(=O)c2ccc3[nH]c4c(c3c2)CCCC4)c(Cl)c1` reads inactive: 78%; that for `COc1ccc(CC(=O)NCCc2csc3nc(-c4ccccc4F)nn23)cc1`, inactive: 55%; that for `COc1ccc(N2CCN(c3oc(-c4ccc(COc5cccc(C)c5)o4)nc3C#N)CC2)cc1`, inactive: 124%. Take `COc1ccccc1C(=O)Nc1ccc(OCc2cc(=O)n3ccsc3n2)cc1`: the survival is inactive: 88%.
